According to PubChem BioAssay AID1963576 (National Center for Advancing Translational Sciences (NCATS), 2024):
Among all 46,000 compounds or so, about 60 (0.1%) were called active. About 3% were inconclusive and are not listed. Calls come from the whole dose curve; as a rule, active = well fitted inhibition curve with a large enough effect; inconclusive = small, poorly fitted or top-dose-only effect; inactive = no such curve, though single readings can be large or run the other way. The list shows a part of the results.

Experiment: Primary qHTS assay for Inhibitors of ovarian cancer metastasis using an organotypic tumor microenvironment (TME) model.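 For activity change, negative = inhibition: plate controls were DMSO wells for no effect and tomatine positive control wells for full effect.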 Note: nearly all actives have a fitted effect of over 65% in size.
Settings: SKOV3ip1-GFP adhesion/invasion on 3D omental model, fluorescence; series mostly up to 45.8 µM; activity change, negative = inhibition: at the top concentration
Outline: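 Adhesion/invasion was scored as fixed GFP-labeled SKOV3ip1 cell counts (488/509 nm), normalized to DMSO and tomatine controls. Cancer cells in serum-free medium, with four compound doses (0.36-46 umol/L), sat 2 hr at RT then 16 hr at 37 C on a 48 hr fibroblast/mesothelial/ECM culture.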

| Compound | activity change, negative = inhibition | outcome |
| --- | --- | --- |
| CCc1c(O)cc(O)c(C(=O)c2ccc(OCCN3CCOCC3)c(OC)c2)c1CC(=O)N(CCOC)CCOC | inactive: 14.3% | – |
| CCOc1ccc(CNC(=O)C2CCN(S(=O)(=O)N3CCCCC3)CC2)cc1 | inactive: -5.09% | – |
| COCCCNC(=O)c1ccc2nc(Cc3ccc(OC)cc3)oc2c1 | inactive: 27% | – |
| CCCc1nn2c(=O)cc(COC(=O)c3cccc(NC(=O)CCc4ccccc4)c3)nc2s1 | inactive: -1.67% | – |
| NCCCCCc1nnc(SCc2ccc(F)cc2)o1 | inactive: -4.51% | – |
| COc1ccc(NC(=O)CSc2nc3ccccc3[nH]2)cc1 | inactive: 5.03% | – |
| Cc1ccc2nc(COc3ccc(NC(=O)COc4ccccc4F)cc3)cc(=O)n2c1 | – | inactive |
| CCOC(=O)C1CCN(C(=O)CSc2n[nH]c(-c3ccccc3)n2)CC1 | – | inactive |
| Cc1cccc(OCc2nc(C#N)c(NCc3ccccc3Cl)o2)c1 | – | inactive |
| Clc1ccc(-c2csc(=Nc3ccccc3)n2Cc2ccc3c(c2)OCO3)cc1 | – | inactive |
| Fc1ccccc1Oc1ncnc2c1oc1ccccc12 | inactive: 2.05% | – |
| CCCCSc1nnc2n(-c3cccc(C)c3)c(=O)c3c4c(sc3n12)CCCC4 | inactive: -13.6% | – |
| COc1ccc(NC(=O)COCc2cc(-c3ccco3)on2)cc1 | inactive: -4.51% | – |
| CC(=O)Nc1nonc1-c1nnc(SCc2ccc(F)cc2)n1C | inactive: 0.451% | – |
| Cc1c(CC(=O)NCc2ccccc2)c(=O)oc2c(C)c(O)ccc12 | inactive: -3.18% | – |
| COc1ccc(-c2cc3nc(C)c(CCC(=O)N4CCN(c5ccccc5)CC4)c(C)n3n2)c(OC)c1 | – | inactive |
| Cc1cc(C)c2nc(NC(=O)c3ccc(S(=O)(=O)N4CCCC4)cc3)sc2c1 | – | inactive |
| COc1cc2c(=O)c(C(=O)c3ccc(C)c(C)c3)cn(Cc3ccccc3)c2cc1OC | inactive: 33.4% | – |
| Cc1ccc(NC(=O)CSCn2nnc3c(=O)[nH]c(Cc4ccc(F)cc4)nc32)c(C)c1 | inactive: -0.655% | – |
| CCCCC(CC)CNC(=O)CCCc1nnc2n(CCC)c(=O)c3sccc3n12 (configuration not stated) | inactive: 1.93% | – |
| Cc1ccc(C)c(N2CCN(C(=O)Cn3c(=O)c4cccn4c4ccc(F)cc43)CC2)c1 | – | inactive |
| CCOCCCNC(=O)Cn1nc(C)n2c(cc3cc(C)ccc32)c1=O | inactive: 8.98% | – |
| Cc1coc2c1C(=O)C(=O)c1c-2ccc2c1CCCC2(C)C | inactive: 7.37% | – |
| Cc1cn2cc(C(=O)N(C)CCO)cc(N[C@@H]3CCOc4cccc(C)c43)c2n1 | inactive: 2.99% | – |
| CCOc1cc(C2C(C(=O)OC)=C(C)NC3=C2C(=O)c2ccccc23)c(Br)cc1OC (configuration not stated) | inactive: -15.5% | – |

| Compound | activity change, negative = inhibition | outcome |
| --- | --- | --- |
| O=C(COc1ccccc1Cl)Nc1nc2c(s1)CCCC2 | inactive: -10.1% | – |
| CCCCN(CCCNC(=O)CN1N=C(c2ccccc2)CCC1=O)c1ccccc1 | inactive: 19.2% | – |
| COc1cccc2cc(-c3nc(C4CCC(C(=O)O)CC4)n4ncnc(N)c34)[nH]c12 (configuration not stated) | inactive: -10.7% | – |
| COc1ncnc(NS(=O)(=O)c2ccc(N)cc2)c1OC | inactive: 4.57% | – |
| COc1ccc(CCCc2nnc(SCC(=O)Nc3cc(F)ccc3C)o2)cc1 | – | inactive |
| Fc1ccc(CNCCCSc2nnnn2-c2ccccc2)cc1 | inactive: 2.7% | – |
| COc1ccc(NC(=O)CSCc2cc(=O)c3cc(C)ccc3[nH]2)cc1 | – | inactive |
| COc1ccc(Cn2c(C(=O)O)c(CNCc3ccc(OC)cc3OC)c3ccc(C)cc32)cc1 | inactive: 1.16% | – |
| COc1cc(Cl)c(C)cc1NC(=O)CC1Oc2ccccc2NC1=O (configuration not stated) | inactive: -17.1% | – |
| CN(C(=O)CSc1nc2ccc(NC(=O)c3cccc(F)c3)cc2s1)c1ccccc1 | inactive: -13.9% | – |
| CCOc1ccc(CNC(=O)c2ccc3c(Cl)c4c(nc3c2)CCCC4)cc1 | – | inactive |
| CCNC(=O)CCCN1C(=O)CCn2nc(-c3cccn3C)cc21 | inactive: -4.98% | – |
| CCn1c(=O)c2cc(C(=O)Nc3cccc(C(F)(F)F)c3)sc2c2ccccc21 | – | inactive |
| COc1ccc(C(=O)Nc2ccc(-c3nc4ncccc4o3)cc2C)cc1Br | – | inactive |
| COc1ccc(NC(=O)c2c(NCc3ccc(C)o3)sc3c2CCCCC3)c(OC)c1 | inactive: -10.2% | – |
| CCn1cc(C(=O)NCCc2ccc(Cl)cc2)c(=O)c2cc(S(=O)(=O)N(C)C3CCCCC3)ccc21 | inactive: -16.6% | – |
| Cc1ccc2nc(NCc3ccccc3)c3nncn3c2c1 | – | inactive |
| Cc1ccc(CNC(=O)CSCc2ccccc2C)cc1 | – | inactive |
| COc1ccc(-n2c(/C=C/c3cccc4ccccc34)nc3ccccc3c2=O)cc1OC | – | inactive |
| O=S(=O)(c1ccc(C2CCCCC2)cc1)N1CCN(c2cc(Cl)ccc2Cl)CC1 | – | inactive |
| CCC(Sc1nc2nccnc2c(=O)n1Cc1ccccc1Cl)C(=O)NC1CCCCC1 (configuration not stated) | inactive: 2.62% | – |
| CCC(CC)C(=O)Nc1nnc(S(=O)(=O)N(C)c2cc(C)cc(C)c2)s1 | – | inactive |
| Cc1cccc(CSCCNC(=O)C2CCN(S(=O)(=O)Cc3ccccc3)CC2)c1 | – | inactive |
| COc1ccc2c(C)c(CCC(=O)NCc3cccc(Cl)c3)c(=O)oc2c1 | inactive: 3.56% | – |
| Cc1ccc(-c2csc(-c3c(N)c(C(=O)c4ccc5c(c4)OCO5)n4ccccc34)n2)cc1C | inactive: -4.14% | – |

| Compound | activity change, negative = inhibition | outcome |
| --- | --- | --- |
| COc1ccc(CCNC(=O)c2cc3c(=O)n4cccc(C)c4nc3n2C)cc1 | inactive: 1.14% | – |
| CCOc1ccc(C2C(=O)N(C3CCCCCC3)CC(=O)N2Cc2ccc(C)cc2)cc1OC (configuration not stated) | inactive: -4.86% | – |
| Cc1cccc(N(CC(=O)NCCc2ccccc2)S(=O)(=O)c2ccccc2)c1C | inactive: 9.2% | – |
| COc1cc2c(cc1OC)C(COc1ccc3c(C)cc(=O)oc3c1)N(C(=O)Cc1ccc(F)cc1)CC2 (configuration not stated) | inactive: 0.673% | – |
| Cc1cc(C)cc(-n2ccn(CC(=O)NCCc3ccccc3)c(=O)c2=O)c1 | inactive: 0.239% | – |
| COc1ccc(NC(=O)CC2Oc3ccc(C)cc3NC2=O)cc1Cl (configuration not stated) | – | inactive |
| Cc1ccc2c(c1)N(CC(=O)Nc1ccccc1C(F)(F)F)C(=O)c1cccnc1O2 | inactive: -7.42% | – |
| COc1ccc(Cn2ccnc2SCC(=O)Nc2ccc3c(c2)OCCO3)cc1 | inactive: -3.68% | – |
| COc1cccc(C(=O)N(Cc2cccc(F)c2)C2CCS(=O)(=O)C2)c1 (configuration not stated) | inactive: -8.73% | – |
| CCOc1ccc(N(CC(=O)NCc2ccc(OC)cc2)S(=O)(=O)c2c(C)[nH]c(=O)[nH]c2=O)cc1 | inactive: -4.03% | – |
| CCOC(=O)c1c(NC(C)=O)c2c3c(sc2n1Cc1c(C)cc(C)cc1C)CCCC3 | – | inactive |
| O=C(Nc1cccc(F)c1)c1ccc2oc(=O)n(Cc3ccccc3)c2c1 | inactive: -5.74% | – |
| COc1cccc(OC)c1C(=O)Nc1ccc(-c2nc3ncccc3o2)cc1 | inactive: 5.42% | – |
| CCOC(=O)c1cc2c(=O)n3ccccc3nc2n(Cc2ccco2)c1=NC(=O)c1ccc(C(C)(C)C)cc1 | – | inactive |
| Cc1c(Cl)cccc1NC(=O)c1oc2ccc(S(=O)(=O)N3CCCCCC3)cc2c1C | – | inactive |
| Cc1ccccc1C(=O)c1ccc(Nc2ccc(Br)cc2N)cc1Cl | inactive: -7.11% | – |
| Cc1ccc(CNC(=O)CCS(=O)(=O)c2cc3c4c(c2)CCN4C(=O)CC3)cc1 | inactive: 9.84% | – |
| CCc1ccc(NC(=O)CSc2nc3c([nH]c4ccccc43)c(=O)n2-c2ccc(C)cc2)cc1 | inactive: -5.02% | – |
| Cc1ccc(C2CC(=O)n3nc(-c4ccc(Cl)cc4)nc3S2)cc1 (configuration not stated) | inactive: -9.18% | – |
| Cc1ccc(Sc2ccc(N3CCC(C(=O)Nc4cc(C)cc(C)c4)CC3)nn2)cc1 | inactive: -4% | – |
| COc1ccc(C(=O)CC(=O)c2ccc(C(C)(C)C)cc2)cc1 | inactive: 6.28% | – |
| O=C(NCc1ccccc1)c1ccc2c(c1)N(Cc1ccccc1F)C(=O)c1ccccc1S2=O (configuration not stated) | inactive: 2.18% | – |
| O=C(Cn1c(=O)n(-c2ccccc2)c(=O)c2c3c(sc21)CCC3)c1ccc(F)cc1 | inactive: -8.98% | – |
| Cc1c(Cl)cccc1-n1ncc(C(=O)NCCN2CCN(C)CC2)c1C1CCN(C(=O)OC(C)(C)C)CC1 | inactive: -2.31% | – |
| COc1cccc(CN(C(=O)COc2ccc(Cl)c(C)c2)C2CCS(=O)(=O)C2)c1 (configuration not stated) | inactive: 16% | – |

| Compound | activity change, negative = inhibition | outcome |
| --- | --- | --- |
| Cc1ccccc1NC(=O)NCCc1c[nH]c2ccccc12 | inactive: -2.33% | – |
| COc1ccc(-c2cc(C)no2)cc1S(=O)(=O)N1CCN(c2cccc(C)c2)C(C)C1 (configuration not stated) | – | inactive |
| O=C(Nc1ccccc1)c1cnc(N2CCCCC2)c2ccccc12 | inactive: -5.52% | – |
| COc1cccc(CN2C(=O)c3ccccc3Sc3ccc(C(=O)NCc4ccccc4)cc32)c1 | inactive: 27.9% | – |
| COc1ccccc1C(=O)Nc1c(C(=O)Nc2cc(Cl)ccc2C)sc2nc(C)cc(C)c12 | inactive: 51.7% | – |
| COc1cccc(N2CCN(C(=O)c3cnc4c(-c5ccccc5)c(C)nn4c3C)CC2)c1 | inactive: 4.97% | – |
| Cc1ccc(NC(=O)c2ccc(NC(=O)N3CCSc4ncccc43)cc2)c(Cl)c1 | inactive: -7.68% | – |
| CCN(CC)c1cc(C)c2cc(NC(=O)c3ccc(OC)c(OC)c3)ccc2n1 | – | inactive |
| Cc1nc(SCC(=O)N2CCN(c3ccccc3)CC2)[nH]c(=O)c1C | – | inactive |
| COc1cccc2cc(C(=O)N3CCN(c4cc(C)ccc4C)CC3)c(=O)oc12 | – | inactive |
| CCN(CC)c1ccc(NC(=O)c2c(C)nn(-c3ccc(F)cc3)c2-n2cccc2)c(C)c1 | – | inactive |
| COc1ccc(OC)c(NC(=O)c2c(NCc3cccs3)sc3c2CCCCC3)c1 | inactive: -6.01% | – |
| COc1ccc(-c2ccc(NS(=O)(=O)c3ccc(NC(C)=O)cc3)cc2)nn1 | inactive: 9.42% | – |
| CCc1ccccc1NC(=O)CN(C)S(=O)(=O)c1cccc2nsnc12 | inactive: 0.731% | – |
| COc1ccc(CCNC(=O)c2cnn(-c3ccc(F)cc3)c2C2CCN(C(=O)OC(C)(C)C)CC2)cc1OC | inactive: 0.411% | – |
| COc1ccc(N2CCN(C(=O)c3cc4c(=O)n(Cc5cccnc5)ccc4nc3C)CC2)cc1 | inactive: 5.95% | – |
| COc1ccc(NC(=O)c2oc3ccc(S(=O)(=O)N4CCOCC4)cc3c2C)c(OC)c1 | inactive: 11.4% | – |
| O=C(CN1C(=O)C2(SCC(=O)N2c2ccc(F)c(F)c2)c2ccccc21)NCCc1ccccc1 (configuration not stated) | – | inactive |
| COc1ccc(CCNC(=O)c2ccc3c(c2)CCN3S(=O)(=O)c2ccccc2)cc1 | inactive: -10.7% | – |
| CCOc1cc(CNC(=O)c2cc(-c3ccccc3)n[nH]2)cc(OCC)c1OCC | inactive: 2.27% | – |
| CCc1ccc(NC(=O)CSc2nc3nc(C)cc(C)n3n2)cc1 | – | inactive |
| COc1ccc(-c2noc(N3CCC(C(=O)Nc4cccc(C)c4C)CC3)n2)cc1 | – | inactive |
